# In PubChem BioAssay (Tox21):
# This list was built around the results that the source calls inconclusive (neither active nor inactive); the mix of calls is not that of the screen. A call without a number means that no potency is given here. For part of these data: Where the call is inconclusive, the potency comes from a doubtful curve fit. Active and inactive are the calls of the source. Unless noted, calls follow the shape of the dose curve; as a rule, active = well fitted curve in the direction sought with a large enough effect in the repeat runs; inconclusive = weak or mixed curves; inactive = no such curve, though single readings can be large; an effect the other way counts as inactive or inconclusive.
# Key:
# [1] = qHTS assay for small molecule agonists of the antioxidant response element (ARE) signaling pathway (AID 743202; active = well fitted activation curve with a large enough effect in the signal ratio in the repeat runs, not every such curve was filed as active; inconclusive = weak or mixed curves, or effect the other way; inactive = no such curve, though single readings can be large or run the other way; the % refers to the signal ratio; also: potency is read from the fitted curve at half-maximal effect); details: HepG2 ARE-bla reporter, beta-lactamase FRET, 16 h; activation: at 73.3 µM (top of the series) unless noted
# In short: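 Read-out: LiveBLAzer B/G FRET substrate fluorescence after 2 h at room temperature, following 16 h compound treatment at 37 C of HepG2 cells carrying an ARE-driven beta-lactamase reporter.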
# [2] = qHTS assay to identify small molecule antagonists of the peroxisome proliferator-activated receptor delta (PPARd) signaling pathway - cell viability counter screen (AID 743213); details: PPARd-bla HEK293H viability, CellTiter-Glo luminescence, 17 h; viability change, negative = cytotoxic: at 62 µM (top of the series) unless noted; also: nearly all actives have a fitted effect of over 50% in size; also: potency is read from the fitted curve at half-maximal effect
# In short: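 PPARd-bla HEK293H cells were treated with compounds plus agonist L165041 (300 nM final) for 17 h at 37 C. Viability was then read in the same wells by CellTiter-Glo luminescence after 30 min at room temperature.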
# [3] = biological target: Vitamin D3 receptor (Homo sapiens) (UniProt P11473); assay: qHTS assay to identify small molecule antagonists of the vitamin D receptor (VDR) signaling pathway (AID 743223; active = well fitted inhibition curve with a large enough effect in the signal ratio in the repeat runs, not every such curve was filed as active; inconclusive = weak or mixed curves, or effect the other way; inactive = no such curve, though single readings can be large or run the other way; the % refers to the signal ratio; also: potency is read from the fitted curve at half-maximal effect); details: VDR-UAS-bla HEK293T, beta-lactamase FRET ratio, 16 h; activity change, negative = inhibition: at 61 µM (top of the series) unless noted
# Chain of UniProt P11473 (P11473 whole entry, looked up): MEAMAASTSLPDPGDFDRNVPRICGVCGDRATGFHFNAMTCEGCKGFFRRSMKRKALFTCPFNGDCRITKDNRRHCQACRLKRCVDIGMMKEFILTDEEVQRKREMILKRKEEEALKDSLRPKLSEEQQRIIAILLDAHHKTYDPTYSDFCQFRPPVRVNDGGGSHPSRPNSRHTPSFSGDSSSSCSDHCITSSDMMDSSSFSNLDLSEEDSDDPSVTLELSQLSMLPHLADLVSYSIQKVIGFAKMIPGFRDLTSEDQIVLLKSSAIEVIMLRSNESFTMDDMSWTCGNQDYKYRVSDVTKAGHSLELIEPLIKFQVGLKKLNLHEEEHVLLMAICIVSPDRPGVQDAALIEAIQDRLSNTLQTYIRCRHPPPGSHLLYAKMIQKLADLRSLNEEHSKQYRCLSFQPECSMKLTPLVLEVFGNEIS
# In short: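 Cells carrying a VDR-driven beta-lactamase reporter (VDR-bla) were co-treated with compound and 3 nM final 1alpha,25-dihydroxyvitamin D3 for 16 h at 37C; reporter activity was measured as FRET substrate fluorescence after 2 h at room temperature.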
# [4] = qHTS assay to identify small molecule antagonists of the retinoid-related orphan receptor gamma (ROR-gamma) signaling pathway - cell viability counter screen (AID 1159520); also: nearly all actives have a fitted effect of over 50% in size; also: potency is read from the fitted curve at half-maximal effect
# In short: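 Tet-on ROR gamma CHO cells (1,000/well) were plated 4 hr, given compounds in DMSO for 2 hr at 37 C, then induced with 1 uM final doxycycline for 16 hr. Viability was read as ATP by CellTiter-Glo luminescence after 30 min.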
# [5] = qHTS assay for small molecule activators of the heat shock response signaling pathway (AID 743210; active = well fitted activation curve with a large enough effect in the signal ratio in the repeat runs, with a control signal flat, not every such curve was filed as active; inconclusive = weak or mixed curves; the % refers to the signal ratio; also: potency is read from the fitted curve at half-maximal effect); details: HeLa HSE-bla reporter, beta-lactamase ratio, 5 h; activation: at 62.6 µM (top of the series) unless noted
# In short: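 HSE-bla HeLa cells (beta-lactamase reporter under heat shock response elements) were exposed to compounds for 5 h at 37 C, then loaded with LiveBLAzer B/G FRET substrate for 2.5 h at room temperature before fluorescence reading.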
# [6] = biological target: Peroxisome proliferator-activated receptor delta (Homo sapiens) (UniProt Q03181); assay: qHTS assay to identify small molecule antagonists of the peroxisome proliferator-activated receptor delta (PPARd) signaling pathway (AID 743215; active = well fitted inhibition curve with a large enough effect in the signal ratio in the repeat runs, not every such curve was filed as active; inconclusive = weak or mixed curves, or effect the other way; inactive = no such curve, though single readings can be large or run the other way; the % refers to the signal ratio;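 also: cells stimulated with agonist L165041 at 300 nM final during compound exposure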; also: potency is read from the fitted curve at half-maximal effect); details: HEK293H PPARd-UAS-bla, beta-lactamase FRET ratio, antagonist, 17 h; ratio activity, negative = inhibition: at 62 µM (top of the series) unless noted
# Chain of UniProt Q03181 (Q03181 whole entry, looked up): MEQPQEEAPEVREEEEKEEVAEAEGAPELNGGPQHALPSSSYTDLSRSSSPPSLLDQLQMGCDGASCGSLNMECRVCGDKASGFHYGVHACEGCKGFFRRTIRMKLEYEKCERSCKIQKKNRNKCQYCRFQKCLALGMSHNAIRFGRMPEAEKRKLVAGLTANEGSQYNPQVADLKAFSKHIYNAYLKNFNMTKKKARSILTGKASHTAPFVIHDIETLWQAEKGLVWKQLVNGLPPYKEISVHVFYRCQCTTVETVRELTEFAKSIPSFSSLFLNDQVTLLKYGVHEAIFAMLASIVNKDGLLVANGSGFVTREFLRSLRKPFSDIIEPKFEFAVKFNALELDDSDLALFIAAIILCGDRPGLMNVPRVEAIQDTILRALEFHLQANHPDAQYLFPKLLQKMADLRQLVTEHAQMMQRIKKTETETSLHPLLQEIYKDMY
# In short: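 PPARd UAS-bla HEK293H cells were pre-incubated 5 h at 37 C, then given test compounds in DMSO plus agonist L165041 (300 nM final). After 17 h at 37 C, beta-lactamase FRET substrate was added; fluorescence read after 2 h at room temperature.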
# [7] = qHTS assay to identify small molecule agonists of the vitamin D receptor (VDR) signaling pathway - cell viability counter screen (AID 743224); details: VDR-bla HEK293T viability, CellTiter-Glo luminescence, 16 h; activity change, negative = cytotoxicity: at 62.6 µM (top of the series); also: potency is read from the fitted curve at half-maximal effect; nearly all actives have a fitted effect of over 50% in size
# In short: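 VDR-bla cells were preincubated 4 h at 37C/5% CO2, then exposed to compounds for 16 h. After the 2 h room-temperature bla FRET read, CellTiter-Glo was added to the same wells and luminescence read after 30 min.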
# [8] = qHTS assay to identify small molecule agonists of the peroxisome proliferator-activated receptor delta (PPARd) signaling pathway - cell viability counter screen (AID 743211); details: PPARd-bla HEK293H viability, CellTiter-Glo luminescence, 17 h; activity change, negative = cytotoxicity: at 62.6 µM (top of the series); also: nearly all actives have a fitted effect of over 55% in size
# In short: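 Counter screen for cytotoxicity run in parallel with the PPARd reporter screen. Beta-lactamase reporter HEK293H cells exposed to compounds 17 h; ATP-based CellTiter-Glo luminescence quantified viability.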
# [9] = qHTS assay to identify small molecule agonists of the farnesoid-X-receptor (FXR) signaling pathway - cell viability counter screen (AID 743218); details: FXR-bla HEK293T viability, CellTiter-Glo luminescence, 16 h; viability change, negative = cytotoxic: at 62.6 µM (top of the series) unless noted; also: nearly all actives have a fitted effect of over 45% in size; also: potency is read from the fitted curve at half-maximal effect
# In short: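 FXR-UAS-bla HEK 293T cells, plated 5 h at 37 C, were exposed to compounds for 16 h at 37 C. CellTiter-Glo was then added to the same wells as the bla readout; luminescence read after 30 min at room temperature.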
# [10] = biological target: Vitamin D3 receptor (Homo sapiens) (UniProt P11473); assay: qHTS assay to identify small molecule agonists of the vitamin D receptor (VDR) signaling pathway (AID 743222; calls by dose curve); details: HEK293T VDR-UAS-bla, beta-lactamase FRET ratio, 16 h; activation: at 63.5 µM (top of the series) unless noted
# In short: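 VDR-bla cells were plated 4 h at 37C/5% CO2, then exposed to compounds in DMSO for 16 h. After LiveBLAzer B/G FRET substrate addition and 2 h at room temperature, beta-lactamase reporter fluorescence was read.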
# [11] = biological target: Nuclear receptor ROR-gamma (Homo sapiens) (UniProt P51449); assay: qHTS assay to identify small molecule antagonists of the retinoid-related orphan receptor gamma (ROR-gamma) signaling pathway (AID 1159521;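 also: CHO cells with doxycycline inducible ROR-gamma driving an RORE luciferase reporter; top concentration of the series differs between compounds; nearly all actives have a fitted effect of over 50% in size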)
# In short: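 Cells were plated, rested 4 h at 37 C, exposed to compounds for 2 h, then given 1 uM final doxycycline hyclate to induce RORγ expression. After 16 h, ONE-Glo luminescence from the ROR response element reporter was measured.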
# [12] = qHTS assay to identify small molecule antagonists of the farnesoid-X-receptor (FXR) signaling pathway - cell viability counter screen (AID 743221; active = well fitted cell-killing curve with a large enough effect in the repeat runs, not every such curve was filed as active; inconclusive = weak or mixed curves, or effect the other way; inactive = no such curve, though single readings can be large or run the other way; also: nearly all actives have a fitted effect of over 50% in size; also: potency is read from the fitted curve at half-maximal effect); details: FXR-bla HEK293T viability, CellTiter-Glo luminescence, 16 h; activity change, negative = cytotoxicity: at 62.6 µM (top of the series) unless noted
# In short: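 Multiplexed counter screen: viability of FXR-bla HEK 293T cells under agonist stimulation by chenodeoxycholic acid (50 uM, final) and test compound for 16 h at 37 C, measured by CellTiter-Glo luminescence in the reporter wells.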
# [13] = biological target: Bile acid receptor (Homo sapiens) (UniProt Q96RI1); assay: qHTS assay to identify small molecule agonists of the farnesoid-X-receptor (FXR) signaling pathway (AID 743220; active = well fitted activation curve with a large enough effect in the signal ratio in the repeat runs, not every such curve was filed as active; inconclusive = weak or mixed curves, or effect the other way; the % refers to the signal ratio); details: HEK293T FXR-UAS-bla, beta-lactamase FRET ratio, 16 h; activation: at 62.6 µM (top of the series)
# Chain of UniProt Q96RI1 (Q96RI1 whole entry, looked up): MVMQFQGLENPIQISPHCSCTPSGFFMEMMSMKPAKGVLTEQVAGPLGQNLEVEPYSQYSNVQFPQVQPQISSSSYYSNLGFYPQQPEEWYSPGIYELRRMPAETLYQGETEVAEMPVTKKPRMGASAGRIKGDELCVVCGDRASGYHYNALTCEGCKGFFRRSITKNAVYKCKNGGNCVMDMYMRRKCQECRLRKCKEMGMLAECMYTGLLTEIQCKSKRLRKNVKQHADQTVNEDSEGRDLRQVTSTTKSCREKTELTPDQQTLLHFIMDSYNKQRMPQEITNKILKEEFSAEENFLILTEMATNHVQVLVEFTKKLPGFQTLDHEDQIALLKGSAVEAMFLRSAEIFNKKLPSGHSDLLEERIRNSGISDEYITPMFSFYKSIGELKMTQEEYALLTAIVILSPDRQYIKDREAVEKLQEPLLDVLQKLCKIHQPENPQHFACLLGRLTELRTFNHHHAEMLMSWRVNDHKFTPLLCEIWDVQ
# In short: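 Beta-lactamase reporter under UAS control in GeneBLAzer FXR HEK 293T cells (5000/well) measured with LiveBLAzer FRET substrate after 2 h at room temperature. Compound exposure lasted 16 h at 37C.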
# [14] = qHTS assay for small molecule agonists of the antioxidant response element (ARE) signaling pathway - cell viability counter screen (AID 743203; calls by dose curve; also: potency is read from the fitted curve at half-maximal effect; nearly all actives have a fitted effect of over 55% in size); details: ARE-bla HepG2 viability, CellTiter-Glo luminescence, 16 h; viability change, negative = cytotoxic: at 73.3 µM (top of the series)
# In short: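 CellSensor ARE-bla HepG2 cells, 2,000 per well, rested 5 hrs at 37C/5% CO2, then exposed to compound in DMSO for 16 hrs; viability read as CellTiter-Glo luminescence after 30 min at room temperature, in the reporter wells.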
# Tags tell the direction and shape of the fitted curve or compound fluorescence and quenching.
smiles,measurement,setting,value
C=CCCCCCCCCC(=O)OCC,Potency,[1],inconclusive: 61.1 µM
same,Potency,[2],inactive
same,"activity change, negative = inhibition",[3],inconclusive: 36.1%
same,Potency,[4],inactive
CC(C)(CCl)c1ccccc1,Potency,[5],"inconclusive: 59.5 µM [activator, single point]"
same,Potency,[6],inactive
same,Potency,[3],inactive
same,Potency,[7],"inconclusive: 53 µM [cytotoxic, single point]"
same,Potency,[4],"inconclusive: 0.235 µM [cytotoxic, single point]"
C[C@H]1O[C@@H](n2cc(F)c(=O)[nH]c2=O)[C@H](O)[C@@H]1O,Potency,[1],"inconclusive: 29.8 µM [rising, partial curve, poor fit]"
same,Potency,[4],inactive
CCCCNc1ccc(C(=O)OCCN(C)C)cc1,Potency,[1],inconclusive: 29.8 µM
same,Potency,[8],inactive
same,Potency,[9],"inconclusive: 11.9 µM [cytotoxic, partial curve, poor fit]"
same,Potency,[10],inactive
same,Potency,[3],inactive
same,Potency,[4],inactive
O=C(O)Cc1cccc(-c2cc(CCCCCCc3ccc(O[C@H]4O[C@H](CO)[C@@H](O)[C@H](O)[C@@H]4O)c(-c4cccc(CC(=O)O)c4)c3)ccc2O[C@H]2O[C@H](CO)[C@@H](O)[C@H](O)[C@@H]2O)c1,activation,[5],inactive: 0.0325% [at 0.55 µM]
same,"activity, negative = cytotoxicity",[4],inactive: 0.991% [at 0.349 µM]
C=CC/C=C/C/C=C/C/C=C/C,Potency,[11],inactive
CC(=O)O[Si](C)(OC(C)=O)OC(C)=O,"viability change, negative = cytotoxic",[2],inconclusive: 0.362% [cytotoxic] [at 80.4 µM]
same,Potency,[9],"inconclusive: 0.0282 µM [cytotoxic, full curve, poor fit]"
same,Potency,[4],inactive
OCC1CC2CC1C1CCC(CO)C21 (centres undefined),"viability change, negative = cytotoxic",[9],inconclusive: -28.6%
same,Potency,[12],active: 24.5 µM
same,Potency,[4],inactive
CN(C)CCCCl,Potency,[5],inactive
same,Potency,[2],"inconclusive: 11.4 µM [cytotoxic, full curve, poor fit]"
same,Potency,[6],"inconclusive: 0.0032 µM [rising, full curve, poor fit]"
same,Potency,[13],inactive
same,Potency,[3],"inconclusive: 20.2 µM [fluorescent, partial curve, poor fit]"
same,Potency,[4],inactive
CCCCCC(C)O (centres undefined),Potency,[1],inactive
same,Potency,[14],"inconclusive: 1.93 µM [cytotoxic, partial curve, poor fit]"
same,Potency,[12],inactive
same,Potency,[4],inactive
Cc1cccc(OCC(O)CNC(C)(C)C)c1C (centres undefined),activation,[1],inconclusive: -33%
same,Potency,[5],inactive
same,Potency,[4],inactive
